According to article doi:10.1101/560110 (bioRxiv, 2019):

How the values were obtained:
[1] = biological target: recombinant human tau, full length (tau 2N4R, 441 aa) (human, UniProt P10636-8 1-441); experiment: thioflavin T aggregation assay
[2] = biological target: the molecule itself; experiment: thioflavin T aggregation assay

B1: recombinant human tau fragment encoding […] (domain or fragment)
chain: not shown
binding result [1]: binds
binding result [2]: binds
